Experimental data as given in the supplement of paper PMC4166925.
± gives the standard deviation of the averaged measurements. Whole data set: some 33,000 sequences, median “E-score (dimensionless, -0.5 to 0.5)” near -0.049, cut for the highest 2% near 0.37. Some of the results follow.

System: T1, PmTbr T-box DNA-binding domain (GST fusion)
T1 sequence: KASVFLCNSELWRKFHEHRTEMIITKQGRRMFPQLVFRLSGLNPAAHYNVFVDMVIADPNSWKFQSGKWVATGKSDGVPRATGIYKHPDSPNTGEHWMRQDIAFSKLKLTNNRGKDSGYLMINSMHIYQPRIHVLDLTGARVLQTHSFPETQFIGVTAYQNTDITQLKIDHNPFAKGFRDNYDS
Assay: PBM E-score of 8-mer (E-score (dimensionless, -0.5 to 0.5)); Tbr is Tbrain of the sea star Patiria miniata (Pm) or the sea urchin Strongylocentrotus purpuratus (Sp); higher = stronger binding preference; most listed sequences are background and not binding sites
Conditions: the construct has about 5 more residues each side
In short: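 GST-fused Tbr T-box DNA-binding domains (the whole T-box plus about five flanking residues) were expressed in BL21 E. coli at 20 °C and purified by glutathione affinity chromatography. Universal Agilent oligonucleotide arrays were made double-stranded by primer extension, incubated with 200 nM protein in PBS (pH 7.5), then scanned and quantified. Every ungapped 8-mer was scored from probe intensities. The Universal PBM Analysis Suite gave each word an enrichment E-score, averaged over duplicate arrays.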

| Sequence | PBM E-score of 8-mer |
| --- | --- |
| CAGCCGAA | -0.286 ± 0.021 |
| ACGGGCCT | -0.236 ± 0.081 |
| CGCCGGTA | 0.028 ± 0.015 |
| CGCGAAAC | 0.355 ± 0.0087 |
| CGTACGTA | -0.0915 ± 0.031 |
| AGCGCAGA | -0.0321 ± 0.09 |
| GCATTCCA | -0.1998 ± 0.00052 |
| AAAACTAA | -0.0943 ± 0.15 |
| ATGGTGAA | -0.0499 ± 0.014 |
| CTGATGCA | 0.0307 ± 0.013 |
| ATGAATCC | -0.0157 ± 0.057 |
| ATCTTTAG | -0.00456 ± 0.01 |
| CGTCCTGC | -0.174 ± 0.025 |
| CGATGACC | -0.0309 ± 0.049 |
| ACAGCGAT | -0.09441 ± 0.00073 |
| CCACTCGG | 0.0588 ± 0.016 |
| TATACGCA | 0.0101 ± 0.039 |
| AGTCGCGC | 0.248 ± 0.013 |
| CCGATGAC | -0.0168 ± 0.02 |
| ATTCCGCC | -0.0779 ± 0.068 |
| CAAACAGA | -0.178 ± 0.024 |
| ACCAATTC | 0.134 ± 0.035 |
| CGGCTCCA | -0.101 ± 0.0089 |
| CCAGTGCG | 0.133 ± 0.074 |
| CATGTTGC | 0.104 ± 0.014 |

| Sequence | PBM E-score of 8-mer |
| --- | --- |
| ATCTAGGA | -0.157 ± 0.038 |
| ATGATAAG | -0.0825 ± 0.014 |
| AATAAGGT | 0.0297 ± 0.12 |
| ACAAGCGT | 0.127 ± 0.046 |
| ACCACTTA | 0.00984 ± 0.039 |
| GCAGGAGA | -0.053 ± 0.049 |
| CAGGTCGG | 0.0808 ± 0.078 |
| GACCCAGC | -0.136 ± 0.072 |
| CTTATTGA | -0.2758 ± 0.00037 |
| CTATCCGC | -0.0974 ± 0.013 |
| ATACTACG | -0.142 ± 0.039 |
| AGCGGGCG | 0.00662 ± 0.1 |
| CAGCCATC | -0.011 ± 0.025 |
| GCGTCTAC | 0.0177 ± 0.037 |
| ACCCGTAT | 0.0722 ± 0.14 |
| AGATTCTA | -0.144 ± 0.0051 |
| AATTAAAC | -0.047 ± 0.035 |
| CAAAGTAC | -0.103 ± 0.0023 |
| CACGAATA | 0.153 ± 0.016 |
| GCAAGGAA | 0.0687 ± 0.034 |
| AGGCTTAG | -0.2567 ± 0.0017 |
| ACTACCAT | -0.115 ± 0.0048 |
| ACTAGGGA | -0.0129 ± 0.068 |
| AGATGGGC | -0.148 ± 0.035 |
| TAGTAATA | -0.152 ± 0.009 |

| Sequence | PBM E-score of 8-mer |
| --- | --- |
| AAGCTTAT | -0.174 ± 0.015 |
| AAGAGACT | -0.173 ± 0.024 |
| CCATTCGG | -0.226 ± 0.014 |
| AACAACAC | 0.363 ± 0.01 |
| CTCGGTAA | -0.0921 ± 0.015 |
| AGATATCT | -0.236 ± 0.18 |
| CGAAACCA | 0.111 ± 0.049 |
| ACCGATAT | -0.122 ± 0.061 |
| CATCAATA | -0.168 ± 0.0056 |
| AACATTAC | -0.0619 ± 0.043 |
| ACAAACGC | 0.0515 ± 0.0056 |
| CGAACCCG | -0.0788 ± 0.0037 |
| CAATAGGA | -0.278 ± 0.016 |
| ACGCCGAA | -0.108 ± 0.053 |
| ACACCAAT | 0.3 ± 0.022 |
| CCTCCGGC | -0.113 ± 0.046 |
| ACCAGGAT | -0.103 ± 0.029 |
| TCCTGACA | 0.2143 ± 0.0011 |
| CTATATGA | -0.151 ± 0.043 |
| CCTCTACG | -0.092 ± 0.013 |
| GCAGATCA | -0.11 ± 0.1 |
| CAAGTGCA | 0.182 ± 0.032 |
| ATCGTATA | -0.0338 ± 0.026 |
| AATTACAC | 0.214 ± 0.044 |
| ATTATAGG | -0.19 ± 0.026 |

| Sequence | PBM E-score of 8-mer |
| --- | --- |
| AAACCAAC | -0.0437 ± 0.062 |
| ACTGACCA | -0.226 ± 0.004 |
| ATGGCGGC | -0.0741 ± 0.043 |
| GCAATTAC | -0.103 ± 0.055 |
| TAATCAAA | -0.12 ± 0.073 |
| AAACCTAT | -0.135 ± 0.14 |
| CAATAAGG | -0.0186 ± 0.041 |
| AGGCAACA | 0.0862 ± 0.017 |
| AGGCGGAA | -0.0735 ± 0.055 |
| GGGCGGTA | -0.15 ± 0.0098 |
| TCGCACAA | 0.295 ± 0.028 |
| ATACATTG | -0.0781 ± 0.031 |
| ATGTAGGC | -0.228 ± 0.053 |
| CGAATTAG | -0.0256 ± 0.075 |
| GCGGACTA | -0.173 ± 0.0084 |
| GGGTATAC | -0.101 ± 0.011 |
| CACCTTCG | 0.431 ± 0.02 |
| TCGCTGAA | -0.0277 ± 0.0086 |
| CTACTTCA | 0.0974 ± 0.028 |
| CGCACCAC | 0.178 ± 0.13 |
| ATAAGTGG | 0.124 ± 0.042 |
| AACGTGCG | 0.345 ± 0.029 |
| ATTCAGGC | -0.0507 ± 0.07 |
| CCAACCCA | -0.109 ± 0.035 |
| ACGACCAT | 0.0077 ± 0.062 |

| Sequence | PBM E-score of 8-mer |
| --- | --- |
| CCACGGTC | -0.159 ± 0.084 |
| GGCGCTAC | 0.346 ± 0.037 |
| AAAGGCGA | 0.183 ± 0.044 |
| CGGATCGA | -0.251 ± 0.053 |
| ACACGGTG | 0.178 ± 0.052 |
| GTGCATCA | 0.0214 ± 0.0025 |
| AGAGCGTC | 0.0543 ± 0.0068 |
| GGCAGCTA | 0.0117 ± 0.024 |
| AGGTCAAT | -0.29 ± 0.046 |
| CTATATAA | -0.113 ± 0.12 |
| CAGCCAAC | 0.0678 ± 0.047 |
| CGGACCCA | -0.155 ± 0.065 |
| AATATTCT | -0.1266 ± 0.0006 |
| CAGAACTG | -0.226 ± 0.067 |
| AGCGGTAT | -0.0667 ± 0.0017 |
| AAGGCAGG | -0.215 ± 0.0042 |
| AACGTGAG | 0.19 ± 0.016 |
| GGTTGAGA | 0.0018 ± 0.085 |
| ACTGTACA | -0.0159 ± 0.089 |
| TAAAAAAA | 0.0906 ± 0.087 |
| CGCCGACA | 0.252 ± 0.043 |
| CACGCCGC | 0.176 ± 0.045 |
| AGCGTGTC | 0.174 ± 0.034 |
| TATCTGGA | -0.0142 ± 0.027 |
| ACTTCTAC | 0.128 ± 0.013 |

| Sequence | PBM E-score of 8-mer |
| --- | --- |
| ACGGCTTG | -0.0273 ± 0.0036 |
| CGGTGTGC | 0 ± 0.12 |
| ATTCCTAG | -0.2231 ± 0.001 |
| CAATGAGC | 0.0125 ± 0.026 |
| AAGTCATT | -0.0342 ± 0.057 |
| AGAGGTAG | -0.165 ± 0.011 |
| TATAAAAA | -0.165 ± 0.13 |
| CGAGCCCA | -0.168 ± 0.016 |
| AGTCGCCC | 0.00515 ± 0.0088 |
| ACCGCTAC | 0.0113 ± 0.11 |
| CGGCGTCC | -0.226 ± 0.084 |
| GTAAAACA | -0.0678 ± 0.083 |
| AGTAGTTA | -0.142 ± 0.091 |
| CTCGAGAA | -0.0318 ± 0.016 |
| CGCTATGA | 0.0752 ± 0.0096 |
| ATGCTAGG | -0.201 ± 0.095 |
| AGTCGGAT | -0.205 ± 0.043 |
| CGGCATCA | 0.00958 ± 0.091 |
| GCTGGTAA | -0.161 ± 0.017 |
| ATAAGGAT | -0.0432 ± 0.072 |
| CGTAATGA | -0.119 ± 0.046 |
| CTTGAAGA | -0.137 ± 0.072 |
| ACAGCTTA | 0.0809 ± 0.017 |
| ACTATACA | -0.134 ± 0.063 |
| TAATATGA | 0.0089 ± 0.083 |

| Sequence | PBM E-score of 8-mer |
| --- | --- |
| CGAGGGTA | -0.214 ± 0.024 |
| TGATCCAA | 0.0657 ± 0.0028 |
| AAGTGGCC | -0.122 ± 0.043 |
| ATTGCGTA | -0.275 ± 0.013 |
| AATGACGT | -0.0358 ± 0.064 |
| ATAGCTAT | -0.243 ± 0.036 |
| CATCCGCG | 0.0749 ± 0.033 |
| AAGTACTA | -0.155 ± 0.051 |
| ACGCGTCA | 0.2939 ± 0.001 |
| GTCTGACA | 0.158 ± 0.063 |
| GAATCCGC | 0.0547 ± 0.0039 |
| TAACATCA | -0.0986 ± 0.04 |
| ACCCAGGG | -0.0641 ± 0.035 |
| CCGACCGC | -0.066 ± 0.048 |
| TAGGACGA | -0.4379 ± 0.00091 |
| AGACCGTG | 0.0657 ± 0.023 |
| ACGTGAGC | 0.0549 ± 0.011 |
| AATCTACT | -0.0512 ± 0.011 |
| GCATCGAA | -0.239 ± 0.065 |
| AGCTCGCC | -0.2 ± 0.14 |
| GCATCACA | 0.279 ± 0.0073 |
| GTCTTGCA | -0.132 ± 0.069 |
